The campaign covered roughly 420,000 compounds. About 64,000 (15%) were called active. Inconclusive results, whose numbers are uncertain, are shown with a selection of clear calls. Calls come from the whole dose curve; as a rule, active = well fitted inhibition curve with a large enough effect; inconclusive = small, poorly fitted or top-dose-only effect; inactive = flat fitted curve, though single readings scatter. Potencies of inconclusive entries are left out as doubtful fits.
assay: qHTS for Inhibitors of human tyrosyl-DNA phosphodiesterase 1 (TDP1): qHTS in cells in absence of CPT; conditions: DT40 Tdp1-/- hTDP1 cells, no CPT, ATP luminescence, 48 h; activity change, negative = growth inhibition: at 46.2 µM (top of the series) unless noted; note: nearly all actives have a fitted effect of over 55% in size
Method in brief: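 Growth kinetics read by CellTiter-Glo luminescence after ≥48 hr at 37 °C. Cells: DT40 Tdp1-/- stably carrying human TDP1, 400 per well, compound exposure in the absence of CPT (DMSO vehicle).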
% is set by controls: 0 for no effect and ±100 for the full control effect; potency is the fitted concentration of half-maximal effect; tags give direction and shape of the fitted curve.

Question: Which Potency does the source give for `COc1ccccc1OCC(=O)Nc1nc(-c2ccc(Br)cc2)ns1` here?
Answer: inactive

Question: Which Potency does the source give for `O=[N+]([O-])c1cccc(SSc2cccc([N+](=O)[O-])c2)c1` here?
Answer: active: 4.61 µM

Question: With `Cc1ccc(CNC(=O)CSc2nc(N3CCCCC3)nc(N3CCCCC3)n2)cc1` as the molecule, how does the Potency read?
Answer: active: 23.1 µM

Question: With `CCOC(=O)CSc1n[nH]c(=O)n1CCc1ccccc1` as the molecule, how does the Potency read?
Answer: inactive

Question: For `COc1ccc(C(CNC(=O)CSc2ccc(Br)cc2C)N2CCOCC2)cc1` (stereo not drawn), which Potency is on record?
Answer: inconclusive [inhibitor, single point]

Question: For `COCCNC(=O)c1ccccc1NC(=O)Nc1ccccc1`, which Potency is on record?
Answer: inactive

Question: Which Potency does the source give for `COc1ccc(/C=N\NC(=O)c2ccccc2)cc1COc1ccccc1` here?
Answer: inconclusive [inhibitor, single point]

Question: Which Potency does the source give for `CC(C)(C)C1CCc2c(sc(NC(=O)c3cc(C4CC4)on3)c2C#N)C1` (stereo not drawn) here?
Answer: inconclusive [inhibitor, single point]

Question: For `O=[N+]([O-])c1ccccc1Oc1ccc(Cl)c2cccnc12`, which Potency is on record?
Answer: inactive

Question: For `O=C(N/N=C/c1cccc2ccccc12)c1cc(C2CC2)[nH]n1`, which Potency is on record?
Answer: inconclusive [inhibitor, single point]

Question: Which Potency does the source give for `Cc1ccc(S(=O)(=O)c2cn(C)c3cc(N4CCCC(C)C4)c(F)cc3c2=O)c(C)c1` (stereo not drawn) here?
Answer: active: 23.1 µM

Question: With `O=C(Oc1cccc(F)c1)c1ccc2c(=O)n3c(nc2c1)CCC3` as the molecule, how does the Potency read?
Answer: inactive

Question: For `COCCNC(=O)C1(C)CCCN(Cc2cc(-c3ccccc3)nn2C)C1` (stereo not drawn), which Potency is on record?
Answer: inconclusive [inhibitor, partial curve]

Question: With `Cc1cc2c(cc1S(=O)(=O)N(CCN(C)C)Cc1ccco1)OCC(=O)N2` as the molecule, how does the Potency read?
Answer: inactive

Question: Which Potency does the source give for `CCN(CC)C(=O)CSc1nnc(-c2ccccn2)n1Cc1ccccc1` here?
Answer: inactive

Question: For `CCCNC(=O)Nc1ccc(NC(C)=O)cc1`, which Potency is on record?
Answer: inconclusive [inhibitor, single point]

Question: With `COc1ccc(CNc2ccc(S(N)(=O)=O)cc2)cc1` as the molecule, how does the Potency read?
Answer: inconclusive [inhibitor, single point]

Question: Which Potency does the source give for `CN(CCN1CCOCC1)Cc1nc(-c2ccc(Cl)cc2)no1` here?
Answer: inconclusive [inhibitor, single point]

Question: With `Cc1ccc(NC(=O)C2CCN(S(=O)(=O)c3c(C)noc3/C=C/c3ccco3)CC2)cc1C` as the molecule, how does the Potency read?
Answer: active: 13 µM

Question: With `COc1ccc(CCNC(=O)c2ccc(-c3cccc([N+](=O)[O-])c3)o2)cc1OC` as the molecule, how does the Potency read?
Answer: active: 20.6 µM

Question: With `CCC(C(=O)NCCCN(CC)Cc1ccccc1)n1nc(C)c2sc3ccccc3c2c1=O` (stereo not drawn) as the molecule, how does the Potency read?
Answer: inconclusive [inhibitor, single point]

Question: Which Potency does the source give for `CCOC(=O)C(=N/O)/C(C)=N/NC(=O)C(=O)Nc1cc(Cl)ccc1Cl` here?
Answer: inconclusive [inhibitor, single point]

Question: For `N#CC(CC(=O)c1ccc(F)cc1)c1ccc2c(c1)OCO2` (stereo not drawn), which Potency is on record?
Answer: inconclusive [inhibitor, partial curve]

Question: For `CCCCCNC(=O)C(c1cc2ccccc2o1)n1c(=O)c(-c2cc3ccccc3[nH]2)nc2ccccc21` (stereo not drawn), which Potency is on record?
Answer: inconclusive [inhibitor, single point]

Question: With `COc1ccc(CNc2nc(-c3ccc4c(c3)OCO4)nc3ccccc23)c(OC)c1` as the molecule, how does the Potency read?
Answer: inconclusive [inhibitor, single point]

Question: Which Potency does the source give for `CCCOc1ccc(-c2nnc(-c3ccncc3)o2)cc1` here?
Answer: inactive

Question: For `CC(=O)c1ccc(-n2nnnc2SCC(=O)Nc2cccc(NC(=O)c3ccco3)c2)cc1`, which Potency is on record?
Answer: inconclusive [inhibitor, single point]

Question: Which activity change, negative = growth inhibition does the source give for `COc1ccc(CNC(=O)C(=O)NCC2CCCN2S(=O)(=O)c2cccs2)cc1` (stereo not drawn) here?
Answer: inconclusive: -35.1% [inhibitor]

Question: For `CCc1ccc(OCC(=O)NNC(=O)c2ccc(-n3cncn3)c([N+](=O)[O-])c2)cc1`, which Potency is on record?
Answer: inconclusive [inhibitor, single point]

Question: Which Potency does the source give for `COc1ccc(NS(=O)(=O)c2cc(NC(=O)/C=C/c3cc(OC)c(OC)c(OC)c3)ccc2N2CCCCC2)cc1` here?
Answer: inactive

Question: For `S=c1[nH]nc(Cc2ccccc2)n1-c1ccc(Cl)cc1`, which Potency is on record?
Answer: inactive

Question: Which Potency does the source give for `Cn1cc(-c2ccc(C(=O)Nc3cccc(Oc4ccccc4)c3)c3occc23)cn1` here?
Answer: inconclusive [inhibitor, single point]

Question: For `Cc1ccc(CN2CCc3nc(N4CCN(C)CC4)ncc3C2)s1`, which Potency is on record?
Answer: inconclusive [inhibitor, single point]

Question: Which Potency does the source give for `CC(C)(C)N(CC#CCC(O)(c1ccccc1)c1ccccc1)CCO` here?
Answer: inconclusive [inhibitor, single point]

Question: Which Potency does the source give for `COc1ccc2[nH]c(=O)c(-c3nnn(-c4ccc(Cl)nc4)n3)cc2c1` here?
Answer: inconclusive [inhibitor, partial curve]

Question: Which Potency does the source give for `CCOC(=O)[C@]12CCCC=C1N(Cc1ccco1)C(=O)[C@H](CC(=O)N1CCCC1)C2` here?
Answer: inactive

Question: With `Cc1ccc(NC(=O)CS(=O)CC(=O)Nc2cnc3ccccc3c2)cc1Cl` (stereo not drawn) as the molecule, how does the Potency read?
Answer: inconclusive [inhibitor, single point]

Question: For `N#C/C(=C(/O)CSc1ccccn1)c1nc2ccccc2s1`, which Potency is on record?
Answer: inconclusive [inhibitor, single point]

Question: With `S=C(NCC1COc2ccccc2O1)Nc1ccc(Br)cc1` (stereo not drawn) as the molecule, how does the Potency read?
Answer: active: 23.1 µM

Question: With `Cc1ccc(S(=O)(=O)N2CCCCC2)cc1C(=O)N1CCCCCC1` as the molecule, how does the Potency read?
Answer: inactive

Question: For `O=C(c1ccc2c(c1)N(Cc1ccccc1F)C(=O)c1ccccc1S2=O)N1CCOCC1` (stereo not drawn), which Potency is on record?
Answer: inactive

Question: Which Potency does the source give for `Cc1cccc(N2C(=O)CC(Sc3nnc(C)s3)C2=O)c1` (stereo not drawn) here?
Answer: active: 6.51 µM

Question: Which Potency does the source give for `CC/C(=N\OC(=O)c1ccc(OC(C)C)cc1)c1ccc(C)cc1` here?
Answer: inconclusive [inhibitor, single point]

Question: For `CCc1nc2ccc(C(=O)NCC3CCCCC3)cn2c1N(CCC(C)C)CCN(C)C`, which Potency is on record?
Answer: active: 25.9 µM

Question: Which Potency does the source give for `O=C(C(Cc1ccccc1)n1cccc1)N1CCN(c2ccccc2)CC1` (stereo not drawn) here?
Answer: active: 25.9 µM

Question: Which Potency does the source give for `CCO/C(C)=C1\C(=O)N(CC)c2ccccc21` here?
Answer: inconclusive [inhibitor, single point]

Question: Which Potency does the source give for `COc1ccc(CNc2ccncc2)c(OC)c1OC` here?
Answer: inactive

Question: With `Cc1ccc(-n2ncc3c(N4CCC(Cc5ccccc5)CC4)ncnc32)cc1` as the molecule, how does the Potency read?
Answer: inconclusive [inhibitor, single point]

Source: PubChem BioAssay AID686978 (National Center for Advancing Translational Sciences (NCATS), 2013)
